Reference: patent US6555692B1, “Preparation and use of bifunctional molecules having DNA sequence binding specificity” (California Institute of Technology, priority 1996, dated 2003)

Assays:
5′-TGTTT-3′ = experiment: Quantitative DNase I footprint titration; type: binding
Experimental: (§1) It has been shown that the Py/Py pair is approximately degenerate for recognition of A,T base pairs, affording generality with regard to targeting sequences of mixed A●T/T●A composition. (White, et al. Biochemistry 35, 12532-12537 (1996)). To test the extent of this degeneracy, the affinity of the hairpin polyamide ImPyPy-γ-PyPyPy-β-Dp was measured for eight possible five base pair 5′-TG(A,T)3-3′ match sites.

5′-TGAAT-3′ = experiment: Quantitative DNase I footprint titration; type: binding; conditions: weakest 5′-TG(A,T)3-3′ site; pH 7.0, 22° C.
Experimental: as §1

Question: Which “difference in the equilibrium association constants between strongest and weakest site” value (5′-TGTTT-3′; eight 5′-TG(A,T)3-3′ sites, 5′-TGTTT-3′ vs 5′-TGAAT-3′) does the source give for `CN(C)CCCNC(=O)CCNC(=O)c1cc(NC(=O)c2cc(NC(=O)c3cc(NC(=O)CCCNC(=O)c4cc(NC(=O)c5cc(NC(=O)c6nccn6C)cn5C)cn4C)cn3C)cn2C)cn1C` [ImPyPy-γ-PyPyPy-β-Dp] here?
Answer: 12 fold

Question: And the “equilibrium association constant Ka” value (5′-TGTTT-3′; strongest 5′-TG(A,T)3-3′ site, pH 7.0, 22° C.)?
Answer: 2.1e+08 M⁻¹

Question: What about the “equilibrium association constant Ka” value (5′-TGAAT-3′) of the same molecule?
Answer: 1.8e+07 M⁻¹
